Data taken from the supplement of paper PMC3334620.
The full ranking holds about 33,000 sequences; the median of “E-score (-0.5 to 0.5)” is about -0.013, and the highest 2% start at about 0.3. The list shows a part of the results.

Molecular target: T1, Msn1 (UniProt P22148)
T1 sequence: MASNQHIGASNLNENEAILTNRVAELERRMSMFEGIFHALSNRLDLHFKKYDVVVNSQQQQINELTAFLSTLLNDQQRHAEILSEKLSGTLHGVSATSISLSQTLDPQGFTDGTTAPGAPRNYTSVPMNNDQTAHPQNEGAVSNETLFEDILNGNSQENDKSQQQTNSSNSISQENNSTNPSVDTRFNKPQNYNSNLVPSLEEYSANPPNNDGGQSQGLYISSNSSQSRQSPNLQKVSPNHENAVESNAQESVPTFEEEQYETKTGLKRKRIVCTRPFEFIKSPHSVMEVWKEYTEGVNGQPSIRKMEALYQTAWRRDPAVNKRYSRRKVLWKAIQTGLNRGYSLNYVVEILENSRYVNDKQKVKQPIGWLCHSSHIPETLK
Test: PBM E-score (8-mer binding enrichment) (E-score (-0.5 to 0.5)); higher = stronger / more preferred TF binding; most listed sequences are background and not binding sites
Conditions: protein concentration: 200 nM; construct: GST-full length
Summary of the method: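 Detection of bound protein used fluorescent anti-GST, with scans normalised by masliner. The proteins were GST-tagged yeast transcription factors applied at about 100-200 nM to universal all-10-mer Agilent arrays made double-stranded by primer extension. Each ungapped eight-base word, pooled with its reverse complement, was scored with an E-score from the Universal PBM Analysis Suite.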

Sequence	PBM E-score
CTTTGTAA	0.168
GAGCCGGA	-0.113
AGCAAGGG	-0.18
AACGTACC	-0.0909
ACCATTCC	0.0147
ACGGACAG	0.175
AACTCAGC	-0.0677
CGTAGGGA	0.0214
CAATGAAA	0.0415
AGTAACCG	-0.102
CGTTGGAA	-0.0918
AACATTGC	-0.162
CCTCCCCA	-0.193
AGTTTTCA	0.131
AAGCTTCT	-0.0377
AGGATGGG	-0.206
AAGCAAAC	0.0435
GGGATACC	-0.242
ATAGTGTA	0.155
CACAAGAA	0.105
ACGAGCTC	-0.0205
GATACCAC	-0.0728
TGTCTGAA	0.364
ACGCGAGT	0.0252
AGATATAG	0.042

Sequence	PBM E-score
AGGTCTAG	-0.134
GGTCGACA	0.0897
CATAGCAG	-0.0677
ACGAAGAT	0.079
ACACTGTC	0.165
ACATCTTA	0.14
AATTTCAC	0.0162
ACTCGTCT	0.0875
AAGCACTC	-0.237
GCGGAGCA	-0.125
CGCATAGC	-0.257
AAGGTCAG	-0.0987
AGTCCGCG	0.0969
GAGTGAGC	0.00141
CGAGGGAA	-0.00712
CTATTGGC	-0.112
GGGAACAA	0.0643
CCCACGAC	-0.0528
TCGGGGAA	0.105
CCAACTCC	0.00265
AATTGAGC	-0.109
CGGGTTAG	-0.252
AAGGCTAG	0.0752
ACCCTGTA	0.0623
CGTTGGCC	-0.086

Sequence	PBM E-score
ATAATAGG	-0.0345
ATCATGTC	0.278
ACTGTACT	-0.00421
CTCTATTA	-0.056
CAGAGGGG	-0.377
CGTTACAG	-0.139
AGGGTTCA	0.0476
GTTACACA	0.0679
ATCGTTAA	0.0888
CTATTTTA	0.194
CCTGGTAC	-0.0538
AGTGGTCC	-0.149
GTAATGTA	0.0561
CCAACAAG	0.151
AAGTTAAC	0.143
ACTATCTC	0.0498
CGTATGTC	0.359
CAACTCTC	-0.0826
CCAATCCC	-0.0552
ACCAGTCA	-0.0816
ATAAATTA	0.343
CACCATAC	-0.153
GTTGACGA	0.018
GTTTCTAA	0.0436
CAGTGCAA	0.0198

Sequence	PBM E-score
GTTTACTA	0.129
GGCGTTTA	-0.0346
TACACCCA	-0.0711
CAAATTTG	0.32
ATGTTGAC	0.137
CAGGGGGA	-0.435
GAGTCTAC	-0.249
TTAATGAA	0.228
CTATCAAC	0.157
GCTTCCCA	-0.191
AAAGCTTC	-0.0561
ATATCGAT	0.0924
CTATGCTA	0.0452
GGACATCC	0.475
CCTTGCGC	-0.193
CCTACACG	-0.141
CCAAAGGG	-0.153
ACAGCAGA	0.0129
ACGGTGTC	-0.047
CTCTCCAG	-0.342
GACCGCTC	-0.267
AGCTCCCC	-0.259
ACATATGT	0.28
ACAGCGGC	-0.0078
CGATCTGA	-0.129

Sequence	PBM E-score
GATTCAGA	0.143
CCCTACAG	-0.19
ACGCTTCA	-0.133
ATCTTCAC	0.095
AAACCCGT	-0.222
CCGGCTTA	-0.14
CATCTATC	-0.14
AGTAGGTG	-0.0635
TCGGGACA	0.456
GACCCTGA	-0.102
AAACCGCA	-0.105
CCCGGTTC	-0.207
CACGTTCA	-0.0285
GCGCGATA	0.119
TGCAGAAA	0.0713
GTCTACGA	0.125
AGTTGTCC	0.441
ATTGAGTC	-0.0428
CGGAACGA	0.167
GTCTAACA	0.115
AAATTGCA	-0.0544
ATGTTTTG	0.12
CAGTACGG	-0.0455
AGGCTACC	-0.104
CGCTATAC	-0.194

Sequence	PBM E-score
GCGTCAGC	-0.0982
GCTTGCCC	-0.405
GTACCGTA	-0.107
CAAACGTA	0.167
ACTGACCT	-0.063
CTCTATCA	-0.0423
GATTGGGC	-0.116
GGAAAACA	0.0419
CGATAAAC	-0.0453
GTCTCAGA	0.0346
ATAACGAC	0.0786
CCAACGAC	-0.0286
ACCAGACC	-0.137
GATTAATA	0.143
GGGGAATA	-0.0106
TAAAACAA	0.0622
AGAATCCA	-0.0394
ACCTCCGG	0.0704
GATTAGTA	0.0785
CGACTCGC	-0.0899
AAGATATT	0.165
GTATGTTA	0.0222
GAGAATTA	0.0576
AGAATTCC	-0.006
AGACGTTA	0.0306

Sequence	PBM E-score
GACCTTGA	-0.0767
AAACATCA	0.0319
AGGTAGGG	-0.303
ACACTTGG	-0.0164
GGTGCCAA	-0.0356
ACTTCGAG	0.145
ATCGGCTC	0.0731
CACTATTC	0.109
CATGCACG	-0.204
AAGGATGA	-0.0102
AAGTTCGG	0.179
CTGGACCA	0.0881
AAGAGATG	-0.123
TGTCAGAA	0.164
ACGTTGAA	-0.0523
ATGCAACC	0.0478
GCTACAAA	0.0669
ATCGACCA	-0.0891
CGAGAATC	0.135
ACACAATC	0.117
CCCGCCTA	-0.00212
GGATTAAC	-0.0303
AATAAGAC	-0.00866
CGTCTAGC	-0.0279
AAGCCCGA	-0.00654

Sequence	PBM E-score
CGCCGCTC	-0.118
ATGATATC	0.00666
CCCCACGC	-0.289
ATGAGCCA	-0.0639
TGATTGCA	0.00362
ACCCGCAC	-0.149
CAGGGATC	-0.266
AGGACTCG	0.112
GACAAATA	0.483
CAGACGGG	-0.28
AAATCCCG	0.226
AGGATTGC	-0.179
GAGTGGAA	-0.0722
AGGGCCAA	-0.218
ACGTCAGC	-0.116
GCTATGAC	0.221
AGCCAATC	-0.0429
CCGTCACG	-0.0257
TCCGAGCA	0.104
GAAGGCAA	-0.0336
AAGATATG	0.102
ACCTAGCA	-0.0383
CCAAAGGC	-0.088
CGTAGTAA	-0.0642
ACAGACGA	0.153

Sequence	PBM E-score
AATGCGAT	0.0073
AATCCAGG	0.033
CACGTGAG	0.00406
CCGCAAAG	0.0143
GCCCGATA	-0.0301
ACGGTTTC	0.0404
ACGTCTCA	0.0211
GCACATAC	-0.162
CTGGTCGA	-0.256
GATAGTTA	0.165
AATTCGAA	0.017
CATGGATC	-0.0448
AGTATGCC	-0.0784
CTAGCTCA	-0.0294
AGGAGCAA	-0.208
CAGGCAAG	-0.187
CTTCAGTA	0.0429
CTGCAGCA	-0.131
CGCCGCCC	-0.157
TAAAACCA	0.133
ATCTGCGC	-0.0533
ACGCGCTA	-0.0481
GCATGCAA	-0.0104
CCAGGTCG	-0.104
AAGGTAGG	-0.0736

Sequence	PBM E-score
AACGGTCT	-0.0125
AAACACTG	0.00165
TGGTGAAA	-0.237
CAGGTCAA	-0.0471
GGACGCCC	-0.223
GAGGAAAA	0.0221
CGATCATA	0.0147
CCGGTGGA	-0.00742
AGTGATTG	0.108
ACGAGTGG	-0.166
ATTCTAGA	-0.044
ACGTCGTA	-0.158
GTTAATAA	0.138
CTGTCGAC	-0.0573
GCAAGACA	0.157
TGGCCCAA	-0.0694
CCACGGCG	-0.0661
GGGCAGCA	-0.164
CCGACCAA	-0.0361
AGGCTCGA	-0.00968
CCACTCTC	-0.25
ACGACACT	0.123
AGCCCATC	-0.119
ACAGTCGC	-0.126
AACATCAG	0.103

Sequence	PBM E-score
CACGGCAA	0.113
CACAGGGC	-0.253
CGTGCCCA	-0.00368
TACGGAAA	0.17
TACCGACA	0.298
AAATGGTC	0.14
AAAGCCAT	0.126
CGCATTCC	-0.173
ATCTCAGC	0.0764
ACCCTAAC	-0.0992
GTGAGTGA	-0.102
GACTACAC	-0.00713
ATCGTTTG	0.184
AATGATAG	0.104
GCCAAAGC	-0.0464
ATCGCAGA	-0.0761
ACTAAGCG	-0.00272
CACGGATC	0.0587
ACCTAAAT	-0.016
CTAACTTA	0.227
GCACCTGC	-0.162
GAACCAGC	0.012
ATAGTGTG	0.0124
GGTCAGGA	0.136
CTGTTAGA	-0.0588

Sequence	PBM E-score
CTTCCTAC	-0.257
GGATAGCA	-0.00882
GGGTCTAC	-0.171
TGAGTGAA	-0.115
GATGTCCA	0.458
CAAGGAAG	-0.0364
GAGATACC	0.105
ATCCCTTG	-0.0792
GTAGGGCA	-0.199
CACCTCAC	-0.0871
ATCAGAAG	-0.0462
AGGCAGCG	-0.198
GCCGGACC	-0.0867
CTTGTATC	0.106
GTGAAAGA	0.168
TACCGCGA	0.0826
CTGACCTC	-0.208
AGTAGTTG	0.0571
AAATCGTG	0.0983
AAAAAACG	0.185
AAGCAACT	0.14
CTATCGCC	-0.195
CGGTGATA	0.0477
AACCTCCC	-0.298
GGAATTTA	0.0324

Sequence	PBM E-score
CAGATTCC	-0.0173
CGCTAATC	-0.116
CCGTTAGC	0.0988
CTGATGAC	0.0578
ACCAATCT	-0.139
GCGGATGA	-0.0293
CATGAGAG	-0.0837
ACCCTCGC	-0.238
ATACAATA	0.114
GTGGATCA	-0.0446
ACACCTCC	-0.066
AGGCGTTG	0.0147
ACGTTATA	0.106
CATGCGGA	-0.0799
CCAGGATA	0.0404
AGTGCACC	-0.0574
ACACACAG	0.0288
GTCTACTA	0.0791
ACAACGGC	0.056
ATGATGAG	0.051
CGCACCCA	-0.196
CAGCACGC	-0.122
AGTGCATC	-0.143
ACAACCCA	0.0013
AAGGCGGA	-0.159

Sequence	PBM E-score
GTAGTTGA	0.103
CGTCGACG	-0.086
AAGGGAGG	-0.286
GCACCTCA	0.05
CATCTTAA	-0.00902
AAATGACG	0.214
CGAGGTAG	-0.251
CTCAACGC	-0.267
AACCTGAG	-0.0662
CGCTTCAG	-0.00969
GAAAGAGC	-0.103
CCCAAACG	0.106
CCCACGGC	-0.271
ATGCACGG	-0.13
GCAGGCCA	-0.00983
AGGGTCTA	-0.14
GAATATGA	0.0659
ACATGAGG	-0.0488
CATTAGTC	0.0288
